A short description of data set [1]: Pharmacokinetics and biodistribution of 125I-labeled antibody in mice. It counts as in vivo, mouse. As for the experimental part: The in vivo pharmacokinetics and stability of DX-2240 (produced in HEK293T cells) was determined by iodinating the protein on available tyrosine residues and measuring plasma clearance and stability in mice after a single intravenous dose. Samples were radio-iodinated by the indirect method using the IODO-GEN™ reagent (method from Pierce, and described by Chizzonite et al. ((1991) J. Immunol. 147:1548; (1992) J. Immunol. 148: 3117). Samples were incubated with the ^125I-NaI solution for 9 min at which time tyrosine (10 mg/mL, a saturated solution) was added to quench the reaction. After about 15 min a 5 μl aliquot was removed as a standard for counting. For each labeling reaction, the ^125I-labeled material (approx. 0.6 mL) was purified using a single 5 mL D-salt 1800 polyacrylamide column (Pierce). Columns were washed with 25 mM Tris, 0.4 M NaCl, pH 7.5 containing 2.5% HSA to block nonspecific sites then extensively with the same buffer minus the HSA. Samples were applied in and columns were eluted with a series of 0.3 mL aliquots. Recovery of applied activity in all protein fractions was >75% and the total recovery of applied activity was >90%. The fractions containing peak levels of labeled protein were pooled for animal injections. To prepare the injectate, the pool was diluted with Tris buffer (pH 7.5) so that the 100 μl injection volume contained about 10 μg of labeled material.
Solutions containing the radio-labeled compounds were administered to all mice by injection into the tail vein. At predetermined times post-administration animals were sacrificed and blood samples were taken for analyses. Time points tested after injection of radio-labeled compounds were: approximately 0, 7, 15, 30 and 90 minutes, 4 h, 8 h, 16 h, 24 h, 48 h and 72 h after injection. Four animals were sacrificed for each time point. At sacrifice, 0.5 mL aliquots of blood were collected into anticoagulant (0.02 mL EDTA) tubes. Plasma was separated from cells by centrifugation and the plasma fraction was divided into two aliquots, one frozen and one stored at 4° C. for immediate analysis.
Analyses included gamma counting of all samples. […] DX-2240, due to its interaction with Tie1 on the surface of endothelial cells, may accumulate in areas of high vascularization such as the lung. Therefore, multiple administrations of DX-2240 may be required to achieve an effective steady-state level of this antibody in the serum of mice. ELISA on ocular bleeds following three every other day dosings, as well as terminal bleed samples from tumor-bearing mice treated with DX-2220, were performed.

Data set [2] is described as follows: SEC-HPLC analysis of plasma samples (in vivo stability). Conditions: plasma samples at 0 min, 30 min, 90 min, 24 h and 72 h. Details: species or system mouse. As for the experimental part:
In addition, SEC-HPLC analysis of plasma samples to assess the in vivo stability of DX-2240 was performed. Instability of DX-2240 in mouse could have contributed to the fast clearance of this compound from the serum. SEC-HPLC analysis was performed for two plasma samples at time points at 0 min, 30 min, 90 min, 24 h and 72 h. […] Therefore, the relatively rapid half-life of DX-2240 in mice is not due to degradation of this compound.

For data set [3], the system named is human LNM35 lung cancer xenografts. The experiment in a line: LNM35 lung cancer xenograft in nude mice. The format is in vivo, mouse. As for the experimental part: The effect of DX-2220 on tumor growth in mice bearing human LNM35 lung cancer xenografts was tested. For these studies, LNM35 cells were injected subcutaneously in the lateral thorax of athymic nude mice. Four days after tumor cell implantation, treatment was initiated with DX-2220 or A2-SV (negative control antibody) at a dosage of 20 mg/kg, three times a week. Tumor sizes were measured at day 6, 8 and 10 post antibody treatment.
(§1) In addition to the in vivo studies presented above, four additional mouse xenografts studies were performed. These studies were conducted either according to the protocols used in the SW-480 or LNM35 study.
(§2) The anti-Tie1 antibody was also evaluated for its effect on implanted tumors. Tumor cells were injected subcutaneously into the abdominal region of mice (Balb/C nu/nu female mice, 5-6 weeks old). The following tumor cells were tested: a lung carcinoma (mouse syngeneic Lewis lung carcinoma (LLC)); human lung carcinoma LNM35; an aggressive human colon carcinoma clone (SW480R). Treatments with anti-Tie1 antibody were initiated 4-6 days post-implantation. The anti-Tie1 antibodies or a control antibody (the A2 anti-streptavidin antibody) were administered intraperitoneally at 20 mg/kg every second day. Tumor volume was measured every second day and calculated as 0.5×height×width×depth.

The subject of data set [4] is LLC (mouse lung carcinoma). The experiment in a line: LLC tumor model in mice. The following applies: 20 mg/kg i.p. every second day; p=0.078. It counts as in vivo. As for the experimental part:
as §1, §2

Data set [5] deals with human colon carcinoma clone (SW480R). Description: SW480R tumor model in mice. The format is in vivo, mouse. The following applies: 20 mg/kg i.p. every second day. As for the experimental part: as §2
Data set [6] concerns human myeloid and erythroid progenitors and megakaryocyte progenitors. Description: In vitro colony assays of hematopoietic progenitors. Conditions: methylcellulose- and collagen-based assays; concentrations up to 100 μg/ml. The format is cell-based. As for the experimental part: The effect of anti-Tie1 antibodies (DX-2220 and DX-2240) on human myeloid and erythroid progenitors was evaluated using methylcellulose-based in vitro colony assays and megakaryocyte progenitors using collagen-based in vitro assays.

For data set [7], the system named is mouse hematopoietic system. The experiment in a line: In vivo myeloablation model (5-FU). Conditions: 5-FU on day 0; days 2 to 14. As for the experimental part: The effect of the E3 anti-Tie1 antibody DX-2240 on the recovery of the mouse hematopoietic system using an in vivo myeloablation model was evaluated. Mice were injected with 5-FU on day 0 and then received either DX-2240 or a negative control antibody. At various time points following injection (days 2, 4, 6, 8, 10, 12 and 14), 4 mice were sacrificed from control and treated groups and peripheral blood and femurs were harvested. The peripheral blood and femoral cells were analyzed to determine the following: • Total nucleated cells per femur • Frequency of bone marrow colony forming cells for both myeloid and erythroid progenitors • Total hematopoietic CFC per femur • Total megakaryocytic CFC per femur • Total white blood cell count and differential analysis of mature cells

B1: DX-2240: germlined f allotyped E3 antibody; light chain SEQ ID NO:724, heavy chain SEQ ID NO:723 (antibody)
heavy: EVQLLESGGGLVQPGGSLRLSCAASGFTFSMYGMVWVRQAPGKGLEWVSVISPSGGNTGYADSVKGRFTISRDNSKNTLYLQMNSLRAEDTAVYYCARAPRGYSYGYYYWGQGTLVTVSSASTKGPSVFPLAPSSKSTSGGTAALGCLVKDYFPEPVTVSWNSGALTSGVHTFPAVLQSSGLYSLSSVVTVPSSSLGTQTYICNVNHKPSNTKVDKRV[left out - human IgG1 Fc]
light: DIQMTQSPSSLSASVGDRVTITCRASQGIGHYLAWYQQKPGKVPKLLIYTASTLQSGVPSRFSGSGSGTDFTLTISSLQPEDVATYYCQQFNSYPHTFGQGTRLEIKRTVAAPSVFIFPPSDEQLKSGTASVVCLLNNFYPREAKVQWKVDNALQSGNSQESVTEQDSKDSTYSLSSTLTLSKADYEKHKVYACEVTHQGLSSPVTKSFNRGEC
modifications: Synthetically generated peptide
Regarding B1, in data set [1] (30 minutes after i.v. dose), the accumulation in heart was found to be 4.04 % ID/g, the accumulation in kidney was 8.34 % ID/g, the accumulation in liver amounted to 5.42 % ID/g and the accumulation in lungs is on record as 12.85 % ID/g. The same molecule showed an accumulation in spleen in data set [1] (30 minutes after i.v. dose) of 7.44 % ID/g. Moreover, the half-life in mice entry in data set [1] (single intravenous dose, about 10 μg 125I-labeled antibody) is recorded as “less than 5 hours”. Further, in data set [2], the in vivo stability entry is “stable in vivo both to degradation and to interactions with plasma components”. For the same molecule, in data set [3] (20 mg/kg i.p. every second day, one study, most responsive), the “inhibition of primary tumor growth” value is 60%. In addition, the “effect on primary tumor growth” value in data set [3] (doubled antibody dose, administration only twice a week) was “only a modest effect on primary tumor growth”. Further, the “inhibition of primary tumor growth” value in data set [4] is listed as ~20%. Further, the “response of tumor to antibody treatment” value in data set [5] is listed as “not responsive”. The “inhibition of colony formation” value in data set [6] is on record as “Neither DX-2220 nor DX-2240 inhibited colony formation”. Moreover, in data set [7], the “recovery of the mouse hematopoietic system” value is “no effect on the recovery of the mouse hematopoietic system following 5-FU administration”.

For the origin of these results see patent US20100196361A1, “Method of inhibition of vascular development using an antibody” (DYAX CORP., priority 2003, published 2010).
